# In all, about 110,000 compounds went through this assay and about 230 (0.21%) showed an effect of 50% or more. The list shows a part of the results.
# Target: DPAP1 (Plasmodium falciparum, UniProt Q8IIJ9)
# Assay: primary screen, percent inhibition; read by cleavage of a fluorogenic dipeptide substrate; higher = more effect of the substance
# Design: species or system P. falciparum D10 trophozoite lysates; single well
# 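Note: 30 min substrate incubation versus DMSO and 10 µM JCP410 controls.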
# DPAP1, sequence (Q8IIJ9 whole entry, looked up): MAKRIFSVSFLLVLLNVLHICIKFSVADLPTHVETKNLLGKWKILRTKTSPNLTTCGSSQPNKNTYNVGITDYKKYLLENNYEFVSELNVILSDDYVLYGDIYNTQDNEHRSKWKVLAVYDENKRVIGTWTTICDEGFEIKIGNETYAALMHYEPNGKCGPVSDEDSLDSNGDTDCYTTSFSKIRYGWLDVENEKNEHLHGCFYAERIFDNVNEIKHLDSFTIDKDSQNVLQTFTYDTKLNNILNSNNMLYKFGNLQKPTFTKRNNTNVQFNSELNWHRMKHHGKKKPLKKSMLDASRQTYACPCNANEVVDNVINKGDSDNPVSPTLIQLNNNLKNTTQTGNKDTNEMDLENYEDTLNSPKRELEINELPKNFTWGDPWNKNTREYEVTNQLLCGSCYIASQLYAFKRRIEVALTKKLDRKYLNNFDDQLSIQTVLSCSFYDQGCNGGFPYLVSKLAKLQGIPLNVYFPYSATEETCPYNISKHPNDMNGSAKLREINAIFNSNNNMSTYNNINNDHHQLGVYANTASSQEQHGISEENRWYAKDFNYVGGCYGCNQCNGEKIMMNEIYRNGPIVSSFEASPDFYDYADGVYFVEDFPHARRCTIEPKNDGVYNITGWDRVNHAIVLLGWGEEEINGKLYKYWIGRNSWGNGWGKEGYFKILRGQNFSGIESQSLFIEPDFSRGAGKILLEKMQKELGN
row,Compound,% Inhibition @ 10 uM [%]
1,OCc1ccnc(Cl)c1,-1.08
2,COc1ccc(OC)c(C(=O)c2ccc(C(=O)Nc3ccccc3C#N)cc2)c1,0.189
3,Cc1ccccc1N(CC(=O)Nc1ccc(Cl)cc1)S(C)(=O)=O,0.00477
4,Cc1cc(C)c(S(=O)(=O)N2CCCc3ccccc32)c(C)c1,1.83
5,COc1ccc2oc(=O)c(C(=O)N3CCN(C/C=C/c4ccccc4)CC3)cc2c1,-2.87
6,N#CCNC(=O)C(Cc1ccccc1)NC(=O)OCc1ccccc1 (centres unmarked),13.5
7,CCOc1ccc(C(=O)c2ccc(Cl)cc2)cc1,-0.703
8,O=C(O)c1cc(S(=O)(=O)N2CCCCC2)ccc1Br,-4.31
9,CC1CN(CCC(C)c2ccccc2)CC(C)O1 (centres unmarked),-2.34
10,c1ccc(-c2nnc3sc(C4COc5ccccc5O4)nn23)cc1 (centres unmarked),1.74
11,CCOc1ccccc1CNC(=O)C(C)n1ncn2cccc2c1=O (centres unmarked),-2.13
12,O=C(Nc1ccc(S(=O)(=O)N2CCCC2)cc1)c1ccc(Br)o1,-2.68
13,CC(C)CN(CCNC(=O)c1cc(-c2ccncc2)nc2ccccc12)CC(C)C,-1.79
14,N#CC1=C(N)OC2=C(CN(Cc3ccccc3)C/C2=C\c2cccs2)C1c1cccs1 (centres unmarked),0.76
15,CCCOc1nc2ccccc2nc1NS(=O)(=O)c1ccccc1,-2.18
16,CCn1c(C(=O)N2CCC(C(=O)NCCN(CC(C)C)CC(C)C)CC2)cc2sccc21,-5.19
17,O=C(Nc1ccccc1)Nc1ccc(S(=O)(=O)Nc2ccc(F)cc2)cc1,-2.03
18,OCCN1CCN(C2CCC(c3ccccc3)CC2)CC1 (centres unmarked),4.75
19,COc1ccc(C(=O)C2=C(O)C(=O)N(CCCN(C)C)C2c2ccc(Br)cc2)c(C)c1 (centres unmarked),1.86
20,CCc1ccc(OCC(=O)c2c(O)oc3ccccc3c2=O)cc1,0.0539
21,Nc1ccc(NC(=O)c2ccccc2)cc1,-5.65
22,O=C(Nc1ccc2[nH]c3c(c2c1)CCCC3)c1ccco1,1.03
23,Cc1ccc(Oc2nc3ccccn3c(=O)c2/C=C(\C#N)C(=O)NCCCOC(C)C)cc1,2.16
24,O=C(CNCCc1c[nH]c2ccccc12)Nc1c2c(nc3ccccc13)CCC2,-3.66
25,O=C(NCCN1CCOCC1)c1ccc(CSCc2cccc(Cl)c2)o1,5.47
26,Cc1ccc(C(C(=O)NC2CCCC2)N2CCN(C(=O)c3ccco3)CC2)cc1 (centres unmarked),-0.363

row,Compound,% Inhibition @ 10 uM [%]
1,CC(NC(=O)c1cccc2c1C(=O)N(C1CCCCC1)C2)c1ccc2c(c1)OCCO2 (centres unmarked),7.59
2,O=C(Nc1ccc(CN2CCOCC2)cc1)c1ccc(Br)cc1,3.48
3,CCn1cc2c(c1-c1ccc(OC)cc1)c(=O)n(C)c(=O)n2C,-3.96
4,O=C(Nc1ccc(Oc2ccccc2)cc1)NC1CCCCC1,2.48
5,CCc1nnc(SCC(=O)O)n1N,3.79
6,CCN(CC)C(=O)C(c1ccccc1)c1ccccc1,-0.261
7,CCCN1C(=O)c2ccccc2NC1c1ccc2c(c1)OCO2 (centres unmarked),-6.7
8,CC(C)C[C@H](NC(=O)N1CCCCC1)C(=O)NCC#N,1.35
9,Fc1cccc(CN2CCN(c3cccc(C(F)(F)F)c3)CC2)c1,-1.86
10,NS(=O)(=O)c1ccc(NC(=O)c2cc(-c3ccc(Cl)s3)nc3ccccc23)cc1,-2.8
11,COc1ccc2cc3c(N)nn(C(=O)c4ccncc4)c3nc2c1,-3.68
12,CC1CCN(S(=O)(=O)N2CCCC(C(=O)N3CCN(C(=O)c4ccco4)CC3)C2)CC1 (centres unmarked),2.01
13,O=C(c1cc(C2CC2)[nH]n1)N(CCc1ccccc1)Cc1ccccc1,2.79
14,CCOC(=O)c1c(NC(=O)c2ccc(C(C)(C)C)cc2)sc(C(C)=O)c1C,6.51
15,COc1ccccc1C(=O)Nc1nn2c(-c3ccccc3C)nnc2s1,3.3
16,CCCN1CCN(C(=O)CN2Cc3ccccc3C2=O)CC1,2.11
17,CC(Cc1ccccc1F)N1CCN(Cc2ccccc2)CC1 (centres unmarked),10.4
18,COc1ccc(Cl)cc1NC(=O)C1C2C=CC(C2)C1C(=O)O (centres unmarked),-5.35
19,CC(=O)N1[C@@H](C2C(=O)NN=C2C)C[C@H](C)N1c1ccccc1 (some centres unmarked),-7.5
20,O=c1cc(O)n(-c2ccccc2)c(=S)[nH]1,-3.04
21,COc1cc2c(cc1OC)C(c1cccc(Br)c1)NC(=O)C2 (centres unmarked),-5.48
22,Cc1ccc(-c2noc(CSc3nnc(C)n3-c3cccc(C)c3)n2)cc1,-5.91
23,Cc1ccccc1OCCCC(=O)Nc1nc2ccccc2s1,-3.41
24,C=CCOc1ccccc1/C=c1\sc2nc(-c3cccs3)nn2c1=O,-1.52
25,C=CCN1C(=O)C(CC(=O)Nc2ccccc2F)S/C1=N\c1ccccc1C (centres unmarked),-5.7
26,CC(C)(C)c1ccc(S(=O)(=O)CCc2ccccn2)cc1,0.035

row,Compound,% Inhibition @ 10 uM [%]
1,O=C(O)c1ccccc1C(=O)NCC1COc2ccccc2O1 (centres unmarked),-2.48
2,O=C(C1CCC1)N1CCN(c2ccc(OCc3ccccc3)cc2)CC1,-0.536
3,O=C(CCCOc1ccc(Cl)cc1Cl)Nc1ccc(O)cc1C(=O)O,-9.2
4,CCCSc1oc(-c2cccs2)nc1S(=O)(=O)c1ccccc1,0.0339
5,CCOC(=O)C1=CN(Cc2ccc(OC)cc2)C=C(C(=O)OCC)C1c1cccc(OC)c1OC,3.45
6,CCOC(=O)c1c(C)[nH]c(C)c1S(=O)(=O)NCC(=O)N1CCN(C(=O)c2ccco2)CC1,1.41
7,Cc1ccccc1NC(=O)c1cc(C(=O)Nc2ccccc2C)n(C)n1,1.96
8,N#CC1=C2c3ccccc3CC3(CCCC3)N2C(=O)C1=O,-0.736
9,O=C(CCNS(=O)(=O)c1cccc2nonc12)NCCc1ccc(Cl)cc1,6.57
10,Cc1nc2cc(-c3ccc(Cl)cc3)nn2c(C)c1CCC(=O)NC(C)c1cccs1 (centres unmarked),-8.02
11,CCCS(=O)(=O)n1nc(-c2ccc(OC)cc2OC)cc1N,5.77
12,CCOC(=O)C1=C(C)NC(=O)NC1c1ccccc1 (centres unmarked),-5.9
13,COc1ccc(CCNC(=O)Cn2ncc3c2-c2ccccc2OC3)cc1OC,-1.66
14,N#Cc1cc2c(nc1SCc1ccccc1)CCC2,-0.759
15,COc1ccccc1C(=O)N1CCC2(CC1)N=C(c1ccc(C)cc1)C(=O)N2,-0.48
16,Cc1ccc(NC(=O)CN(C2CCCCC2)S(C)(=O)=O)c(C)c1,-0.545
17,CNC(=O)CCc1nc(-c2ccccc2)no1,3.62
18,Cc1c(C(=O)/C=C/c2ccccc2Cl)c2cc(O)ccc2n1C,-2.7
19,O=C(Nc1cccc(C(F)(F)F)c1)c1cc2ccccc2oc1=O,4.67
20,Cc1cc(NC(=O)c2cc3n(n2)C(C(F)(F)F)CC(c2ccc(Cl)c(Cl)c2)N3)no1 (centres unmarked),-0.142
21,CC(C)Cn1c(-c2ccc(S(=O)(=O)N3CCOCC3)cc2)cs/c1=N\c1ccc(F)cc1,-0.622
22,CCCNC(=O)c1cc2ncc(Br)cn2n1,1.04
23,CCOC(=O)c1c(C)n(C)c2ccc(OCC(O)Cn3nc(C)cc3C)cc12 (centres unmarked),-5
24,COc1ccc(C(=O)CSc2nc(O)c3c(C)c(C)sc3n2)cc1C,-7.18
25,CCN(CC)C(=O)c1ccc(COc2ccccc2Br)o1,-5
26,O=C(CC1OCC2CCCCN2C1=O)Nc1ccc(F)cc1 (centres unmarked),6.61

row,Compound,% Inhibition @ 10 uM [%]
1,CCOc1cc(C=C2C(=O)NC(=O)NC2=O)ccc1OCC(=O)O,-6.6
2,O=C(O)c1ccc(CSc2ccccn2)cc1,2.67
3,CCOC(=O)C1=C(C)N=c2s/c(=C/c3ccccc3F)c(=O)n2C1c1ccccc1F (centres unmarked),13.1
4,Cc1cc2c(c(=O)o1)C(c1ccc(-c3ccccc3)cc1)C(C#N)=C(N)O2 (centres unmarked),0.317
5,Cc1ccc(Cl)cc1N1CCN(C(=O)COc2ccc(S(=O)(=O)NCC(C)C)cc2)CC1,-3.92
6,CC1=C(C(=O)OCc2ccccc2)C(c2ccccc2Cl)NC(=O)N1 (centres unmarked),0.219
7,COc1ccccc1CC(=O)NCc1nc(-c2ccc(Cl)cc2)no1,-2.99
8,O=C(O)C1C2C=CC(C2)C1C(=O)Nc1nc(-c2ccccc2)cs1 (centres unmarked),1.67
9,Cc1ccc(C(=O)Nc2ccc3c(c2)OCO3)cc1C,1.65
10,Cc1ccc(-n2ncc3c(O)nc(SCC(=O)c4ccccc4)nc32)cc1,-1.54
11,COc1ccccc1N1CCN(C(=O)Nc2cccc(Cl)c2)CC1,-5.61
12,C=CCOC(=O)C1=C(C)N=C(S)NC1c1ccc(C(C)(C)C)cc1 (centres unmarked),1.52
13,CCOc1ccc(N(CC(=O)Nc2c(C)cccc2C)S(C)(=O)=O)cc1,2.22
14,O=C(N[C@@H](Cc1cc(I)c(O)c(I)c1)C(=O)NC/C=C/S(=O)(=O)c1ccccc1)c1ccc(Br)cc1,-3.04
15,CC1CC(C)CN(C(=O)c2cc(-c3ccccn3)nc3ccc(S(=O)(=O)N4CCOCC4)cc23)C1 (centres unmarked),3.47
16,CCOC(=O)C1=C(C)N(CCOC)C(=O)/C1=C\c1ccccc1F,-5.26
17,O=S(=O)(Nc1cc(C(F)(F)F)ccc1Cl)c1cc(Cl)ccc1Cl,-5.32
18,c1ccc(CCNc2ncnc3c2cnn3-c2ccccc2)cc1,10.6
19,COc1ccc2nc3sc(C(=O)Nc4nc5ccccc5s4)cc3cc2c1,-6.29
20,CC/N=C(/Nc1[nH]nc(C)c1-c1ccccc1F)SC,-2.28
21,O=C(CCC1CCCC1)N1CCN(Cc2ccccc2)CC1,-6.17
22,Cc1csc(C)[n+]1CC(=O)c1ccccc1,-11.1
23,CN1C(=O)CC(C(=O)Nc2ccc(F)cc2)S/C1=N\c1cccc(C(F)(F)F)c1 (centres unmarked),-3.95
